Test results from PubChem BioAssay AID493208 (National Center for Advancing Translational Sciences (NCATS), 2011).
Out of some 44,000 compounds screened, about 340 (0.77%) were called active. About 5% were inconclusive and are not listed. The call rests on the fitted dose curve; in most records, active means well fitted inhibition curve with a large enough effect; inconclusive means small, poorly fitted or top-dose-only effect; inactive means flat fitted curve, though single readings scatter. Some of the results follow.

Experiment: Acumen qHTS Assay for Inhibitors of the mTORC1 Signaling Pathway in MEF (Tsc2-/-, p53-/-) Cells: Sytravon;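 further: plate controls were DMSO for no effect and rapamycin for full effect; nearly all actives have a fitted effect of over 50% in size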
Settings: phospho-rpS6 immunofluorescence/PI, 24 h; series mostly up to 38.3 µM; activity change, negative = inhibition: at the top concentration
How it was run: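 Readout is phospho-S6 Alexa 488 signal normalized to PI per well, reported as % active cells with thresholds set from rapamycin (7.5 nM) and DMSO controls. Cells: Tsc2-/-, p53-/- MEFs, 24 hrs compound at 37 C; PI cell number serves as viability.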

Activity change, negative = inhibition, inactive:
CCN(CC)S(=O)(=O)c1ccc(-c2csc(=Nc3cccc(C(F)(F)F)c3)n2Cc2ccc3c(c2)OCO3)cc1 -7.59%
CCc1ccc(CNC(=O)Cn2nc(-c3ccc(Cl)cc3)ccc2=O)cc1 -0.0953%
COc1ccc(C2c3c(n(C)c4ccccc34)C(=O)N2CC(=O)Nc2ccc(C)cc2Cl)cc1 (stereo not given) -2.37%
CN(C)c1ccc(CNC(=O)C2CCN(S(=O)(=O)c3ccc4c(c3)oc(=O)n4C)CC2)cc1 -7.41%
COc1cccc(NC(=O)Cn2c(=O)n(Cc3ccc(C(=O)NCc4ccc5c(c4)OCO5)cc3)c(=O)c3ccccc32)c1 -12.4%
Cc1ccc(S(=O)(=O)N2CCCc3cc(NS(=O)(=O)c4ccc(F)cc4)ccc32)cc1 13.6%
CCC(Oc1ccc(F)cc1)C(=O)Nc1nc2c(s1)CCCC2 (stereo not given) -8.77%
CCc1ccc(-c2cc(C)no2)cc1S(=O)(=O)NCc1ccco1 7.38%
COc1ccc(C(=O)N2c3nc(-c4ccco4)nn3C3(CCCCC3)[C@@H]3CCCC[C@@H]32)cc1OC -2.86%
O=C(NC1CCCCC1)c1ccc(Cn2c(SCc3ccccc3)nc3cccnc32)cc1 -0.396%
Cc1cccc(C(=O)N2CCCCC2CCN2CCCCC2)c1 (stereo not given) -18.6%
O=C(Nc1ccc(F)cc1)c1oc2ccccc2c1NC(=O)C1CCCCC1 2.6%
Cc1ccc2nc(NC(=O)c3ccc(S(=O)(=O)N4CCCc5ccccc54)cc3)sc2c1 -1.26%
COCCCn1c(=O)c2sccc2n2c(CCCC(=O)Nc3ccc(F)c(F)c3)nnc12 -19.8%
O=C(C1CCCCC1)N(Cc1cccnc1)c1nc2c(F)cc(F)cc2s1 0.688%
COc1ccc(CNC(=O)CCC2N=C3c4ccccc4N=C(SCc4ccc(F)cc4)N3C2=O)cc1 (stereo not given) 1.36%
Nc1c(C(=O)Nc2cccc(F)c2)sc2nc(-c3cccs3)ccc12 -12.1%
Cc1ccccc1-c1nc2scc(CCNC(=O)C(=O)Nc3ccc(F)cc3F)n2n1 -1.63%
Cc1cc(C)nc(NS(=O)(=O)c2ccc(NC(=O)c3cc(=O)c4ccc(C)c(C)c4o3)cc2)n1 -7.44%
CN1CCN(C2(CNC(=O)c3ccc([N+](=O)[O-])cc3)CCCCC2)CC1 0.512%
Nc1c(C(=O)NCCc2ccccc2)nnn1CC(=O)Nc1ccc(Cl)cc1 -2.34%
CCCn1c(CCC(=O)Nc2cccc(C)c2C)nc2cccnc21 -16.5%
O=C(CSc1nc2c([nH]c3ccccc32)c(=O)n1-c1ccccc1)c1ccc(Cl)cc1 -1.07%
C=Cc1ccc(Cn2c(C(=O)O)c(CNCCc3ccccc3)c3ccc(C)cc32)cc1 -9.56%
Cc1ccccc1OCCCCn1c(C2CC(=O)N(c3ccccc3Cl)C2)nc2ccccc21 (stereo not given) 2.09%
CCOC(=O)C1CCCN(c2c(C(=O)c3ccc(C)cc3)cnc3ccc(OCC)cc23)C1 (stereo not given) -20.8%
COc1ccc(CC(=O)Nc2ccc3nc(Nc4cccc(Cl)c4)cc(C)c3c2)cc1 -10.1%
Cc1ccc(Nc2c(-c3ccc(N4CCOCC4)cc3)nc3c(C)cccn23)cc1 1.12%
COCCn1c(SCC(=O)Nc2cccc(C)c2C)nc2c(oc3ccccc32)c1=O -1.53%
COc1ccc(CCNC(=O)c2cc3c(-c4ccc(OC)c(OC)c4)nn(C)c3s2)cc1OC -8.49%
Cc1ccc(Cn2c(CO)cnc2SCc2cccc(F)c2)cc1 -0.898%
Cc1ccc(Cl)cc1N1CCN(C(=O)c2ccc(CS(=O)(=O)c3ccc(Br)cc3)o2)CC1 -10.5%
Cc1oc2ncn(C)c(=O)c2c1C(=O)N(Cc1ccccc1)C(C)C -5.6%
CCOC(=O)c1c(C)[nH]c(CCC(=O)NCc2cccc(OC)c2)c1C 1.04%
Cc1ccc(Cl)cc1N1CCN(C(=O)CCn2c(=O)c3cccn3c3cccnc32)CC1 -0.348%
CCc1ccccc1NC(=O)CSc1nc2ncccc2o1 -1.54%
Cc1oc2ccc(O)c(CN3CCCCC3C)c2c1C(=O)Nc1ccccc1 (stereo not given) -1.24%
Cc1cccc(CC(=O)NC2CC(=O)N(c3ccccc3)C2)c1 (stereo not given) -6.61%
O=C(CSc1nc(=O)n(CCN2CCOCC2)c2c1CCC2)Nc1cccc(Cl)c1 -3.08%
COc1ccc(C(CNC(=O)Cc2ccc(Cl)cc2)N2CCOCC2)cc1 (stereo not given) 1.96%
O=C(CC(c1cccs1)N1Cc2ccccc2C1=O)Nc1ccc(F)cc1F (stereo not given) -3.48%
COc1cc(NC(=O)CN2C(=O)C(c3ccc(Cl)cc3)=NC23CCCCC3)cc(OC)c1 -1.89%
Cc1ccc(C2=CC(c3ccc(Cl)cc3)n3nc(-c4ccc(C)cc4)nc3N2)cc1 (stereo not given) -8.83%
CC(C)c1ccc(C2c3c(oc4ccc(Cl)cc4c3=O)C(=O)N2CCCN2CCOCC2)cc1 (stereo not given) -0.921%
Cc1cc2c(cc3c(SCc4cccc(F)c4)nnc(C)n32)o1 -19.7%
Cc1cccc(C(=O)N2CCC(N3CCN(Cc4ccc(F)cc4)C(=O)C3=O)CC2)c1 0%
O=c1c2c3c(sc2n(Cc2ccccc2F)c(=O)n1-c1ccc(Cl)cc1)CCCC3 -25.2%
COC(=O)c1ccc(Cl)cc1NC(=O)NC(C)c1c(-n2cccc2)sc(C)c1C (stereo not given) -1.66%
COc1ccc(NC(=O)CCc2nc3cccnc3n2-c2ccccc2)cc1Cl -1.31%
CNC(=O)C1CCC(Cn2c(=O)c3sccc3n(CC(=O)N3CCC(C)CC3)c2=O)CC1 (stereo not given) -13.2%
Cc1ccc(-n2ncc(C(=O)NCc3ccco3)c2C2CCN(C(=O)OC(C)(C)C)CC2)cc1 -8.39%
COC(=O)c1cc(S(=O)(=O)NCC2CCN(Cc3cccc(F)c3)CC2)cn1C -3.86%
Cn1c(=O)c2c(-c3ccc(Cl)cc3)n(CCc3ccccc3)cc2n(C)c1=O -0.512%
Cc1ccc2nc(Cl)c3cc(C(=O)N4CCCCC4)sc3c2c1 2.27%
Cc1cc(C)c(Cn2c(=O)n(CCCC(=O)NCc3ccc4c(c3)OCO4)c(=O)c3sccc32)c(C)c1 -8.08%
Cn1nnc2c(NCc3c(F)cccc3F)ncnc21 -3.23%
COc1ccc(N(C(=O)Cn2nnc3ccccc32)C(C(=O)NCc2ccccc2)c2ccc(F)cc2)cc1 (stereo not given) 1.58%
COc1ccc(N2CCN(Cc3nc4c(c(=O)[nH]c(=O)n4C)n3Cc3ccccc3F)CC2)cc1 -3.49%
COc1ccc(CCNC(=O)c2cc(=O)c3cc(C)c(C)cc3o2)cc1OC 2.02%
Cn1c(=O)c2c(nc(SCC(=O)Nc3ccc(F)c(F)c3)n2Cc2ccccc2F)n(C)c1=O -24.2%
O=C(NCCc1ccc(Cl)cc1)C1CCN(S(=O)(=O)c2ccc3[nH]ccc3c2)CC1 0.225%
COc1ccc(CCNC(=O)C(=O)NCC(c2cccs2)S(=O)(=O)c2ccc(F)cc2)cc1 (stereo not given) -3.19%
O=C(COCc1cc(-c2ccc3c(c2)OCO3)on1)Nc1cc(Cl)ccc1O 1.12%
COc1ccc(-c2noc(CNC(=O)COc3cccc(C)c3C)n2)cc1 -1.25%
CCOC(=O)c1c(C)oc2nc(C)nc(NCCCN3CCN(c4cc(C)ccc4C)CC3)c12 -11.9%
CC(C)c1ccc(Nc2c(-c3ccccn3)nc3ccccn23)cc1 -18.7%
COc1ccc(-c2nc(CSCC(=O)NCc3ccccc3Cl)c(C)o2)cc1OC -11.8%
COc1cc(OC)c(NC(=O)CCc2c(C)nc3c4c(C)cc(C)nc4nn3c2C)cc1Cl -16.1%
CCCCCN1C(C(=O)c2ccccc2)=C(OC(=O)CC)c2ccccc2S1(=O)=O -17.6%
CC(NC(=O)c1ccc2c(c1)sc1nc(-c3ccc(F)cc3)cn12)C12CC3CC(CC(C3)C1)C2 (stereo not given) -16.7%
COc1cccc(/C=C/c2nc(C#N)c(N3CCN(C)CC3)o2)c1 -1.62%
COc1cc(NC(=O)C2CCN(S(=O)(=O)c3c(C)noc3/C=C/c3ccccc3F)CC2)cc(OC)c1OC -0.399%
Cc1ccc(CCNC(=O)c2ccc(Nc3nc4ccccc4n4nnnc34)cc2)cc1 1%
Cc1cccc(NC(=O)c2cc3c(=O)n(Cc4cccnc4)ccc3nc2C)c1 -16.4%
N#Cc1cc2c(=O)n3ccccc3nc2n(-c2nnc(SCc3ccccc3Cl)s2)c1=O -6.29%
CCN(CCCNC(=O)Cn1ncc2c([nH]c3ccc(C)cc32)c1=O)c1ccccc1 -2.45%
CCC(Sc1nc2n[nH]c(C)c2c(=N)n1-c1ccccc1Cl)C(=O)N(CC)CC (stereo not given) 5.77%
CC1Cn2c(C(=O)NCc3ccccc3Cl)cc3cccc(c32)S1 (stereo not given) -14.8%
CCOC(=O)Cn1c(=O)n(CC2CCCO2)c2nc(-c3cc(OC)ccc3OC)nc(C(N)=O)c21 (stereo not given) 2.46%
Cc1ccc(S(=O)(=O)NCCc2nnc3ccc(SCC(=O)Nc4ccc(F)cc4F)nn23)cc1 -5.8%
COc1ccc(CCNC(=O)CCc2c(C)nc3cc(-c4cccc(F)c4)nn3c2C)cc1OC 5.71%
CCCOc1ccc(C(=O)N(Cc2ccco2)Cc2ccco2)cc1 -2.33%
O=C(NCC(c1cccs1)S(=O)(=O)c1cccs1)c1c(F)cccc1F (stereo not given) -23.3%
COc1ccc(OC(=O)c2nc(SCc3ccccc3C)ncc2Cl)cc1 -12.5%
Cc1ccccc1OCC(=O)Nc1ccccc1OCc1cc(=O)n2ccccc2n1 -6.12%
Cc1ccc(CCNC(=O)CCCc2nnc3n(C)c(=O)c4sccc4n23)cc1 7.85%
COc1cccc(CSc2nc3n(n2)C(CC(C)C)C(C(=O)Nc2ccccc2C)=C(C)N3)c1 (stereo not given) -0.185%
COc1ccc(C(=O)Nc2cccc(C(=O)OCc3cc(=O)n4c5c(sc4n3)CCCC5)c2)cc1 3.93%
Cc1cc(C)c2c(CC(=O)Nc3cc(C(F)(F)F)ccc3Cl)coc2c1 2.99%
COc1ccccc1-n1c(=O)n(C)c2c(C(N)=O)nc(-c3cccc(OC)c3OC)nc21 3.68%
O=C(C1CCCN(S(=O)(=O)c2cccc3nsnc23)C1)N1CCN(c2cccc(Cl)c2)CC1 (stereo not given) -1.21%
Cc1ccc2nc(-c3ccccn3)c(Nc3ccccc3C)n2c1 -28.8%
CCCN1CCc2nc(N3CCN(C)CC3)ncc2C1 5.89%
CCN(CC)c1nn2c(=O)c(C(=O)NCCc3cccc(C)c3)cnc2s1 -10.5%
CCc1cccc(C)c1NS(=O)(=O)c1ccc2c(c1)CC(C)N2C(=O)C1CC1 (stereo not given) -11.6%
